The whole screen tested about 45,000 compounds, of which about 65 (0.1%) were called active. Calls follow the shape of the dose curve; as a rule, active = well fitted activation curve with a large enough effect; inconclusive = small, poorly fitted or top-dose-only effect; inactive = no such curve, though single readings can be large or run the other way. This is one part of the list.
What follows are compounds tested against Galactocerebrosidase (Homo sapiens) (UniProt P54803) (assay: A Novel Cell-Based Assay to Identify Small Molecules for B -Galactocerebrosidase). Settings: 145M-Twi-hGALC-G270D cells (Twitcher mouse brain line with human GALC G270D), HMU-beta-Gal fluorescence, 48 h; series mostly up to 57.5 µM; activation: at the top concentration.
Sequence of UniProt P54803 (P54803 whole entry, looked up): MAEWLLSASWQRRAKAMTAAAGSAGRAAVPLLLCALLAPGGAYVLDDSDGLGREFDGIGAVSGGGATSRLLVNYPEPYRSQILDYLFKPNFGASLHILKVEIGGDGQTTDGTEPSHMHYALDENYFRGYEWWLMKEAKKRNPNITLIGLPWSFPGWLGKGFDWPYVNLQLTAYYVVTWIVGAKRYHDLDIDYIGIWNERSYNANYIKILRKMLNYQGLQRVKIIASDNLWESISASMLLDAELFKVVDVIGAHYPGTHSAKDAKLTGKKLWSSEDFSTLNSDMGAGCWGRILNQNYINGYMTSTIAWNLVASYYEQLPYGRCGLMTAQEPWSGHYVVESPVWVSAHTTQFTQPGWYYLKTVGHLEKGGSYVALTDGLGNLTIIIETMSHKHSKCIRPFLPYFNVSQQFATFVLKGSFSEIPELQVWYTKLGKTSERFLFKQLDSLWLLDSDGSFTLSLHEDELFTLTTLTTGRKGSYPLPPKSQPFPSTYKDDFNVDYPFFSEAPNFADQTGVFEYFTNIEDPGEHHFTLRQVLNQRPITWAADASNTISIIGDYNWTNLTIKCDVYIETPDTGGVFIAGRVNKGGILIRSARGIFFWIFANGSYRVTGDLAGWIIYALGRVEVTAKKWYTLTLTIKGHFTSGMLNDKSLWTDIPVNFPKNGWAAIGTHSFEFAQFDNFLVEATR
Procedure, shortened: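 Brain-derived Twitcher mouse 145M-Twi cells stably expressing human GALC-G270D or wild-type GALC, treated live, then residual GALC activity read by fluorescence of HMU-b-Gal substrate (0.1 mM final) in citrate-phosphate buffer pH 5.2 with sodium taurocholate. Signal increase indicates enhancement.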
Also: 0% is about no effect; nearly all actives have a fitted effect of over 65% in size.

activation, inactive:
CCn1cc(C(=O)NCc2ccc(Cl)cc2)c(=O)c2cc(S(=O)(=O)N(C)C3CCCCC3)ccc21 -0.448%
CCOC(=O)C1=C(CN2CCN(c3cccc(Cl)c3)CC2)NC(=O)NC1c1ccc(Cl)cc1 (stereo unspecified) -4.2%
CCN(Cc1ccccc1)S(=O)(=O)c1ccc(-c2coc(C)n2)cc1 -36.4%
CC(CNC(=O)c1ccc2nc(Cc3ccccc3)oc2c1)c1ccccc1 (stereo unspecified) -12.2%
O=C(Cn1ncc2c3ccccc3n(Cc3ccc(F)cc3)c2c1=O)NCc1cccs1 -14.2%
Fc1ccc(C2=CC(c3ccc(F)cc3)n3c(nc4ccccc43)N2)cc1 (stereo unspecified) -9.16%
Cc1cc(-n2c(C)nc3ccccc3c2=O)ccc1NC(=O)C(F)(F)F -27.3%
COc1ccc(NC(=O)CCCn2nc(C)c3sc4ccccc4c3c2=O)cc1 -1.48%
COc1ccc(S(=O)(=O)NCCSc2nnnn2-c2ccccc2)cc1 -8.45%
Cc1cc(C(=O)Nc2ccc(-n3c(C)nc4ccccc4c3=O)cc2)ccc1[N+](=O)[O-] -12.5%
COc1ccc(NS(=O)(=O)c2ccc3nc(-c4ccccc4)[nH]c3c2)cc1 -27.8%
CCC(C)Nc1ncnc2c1cnn2-c1ccc(F)cc1 (stereo unspecified) -8.31%
CC1CCCN(S(=O)(=O)c2ccc3c(c2)CCN3C(=O)CCC(=O)O)C1 (stereo unspecified) -10.6%
CCS(=O)(=O)CCn1c([N+](=O)[O-])cnc1C -19.1%
O=C(NCC(c1ccc(Cl)cc1)N1CCOCC1)c1ccccc1F (stereo unspecified) -27.5%
CCOc1ccc(-c2nnc(SCC(=O)Nc3cccc(OC)c3)nc2-c2ccc(OCC)cc2)cc1 7.12%
O=C1CCc2cc(OCCCCc3nnnn3C3CCCCC3)ccc2N1 -17.3%
COc1ccc(C(=O)NCC(c2ccc3c(c2)OCO3)N2CCN(c3ccccc3F)CC2)cc1 (stereo unspecified) -10.9%
O=C(COc1ccc([N+](=O)[O-])cc1)Nc1nc2c(s1)CCCC2 -7.23%
COc1cccc(C2CC(=O)Nc3c2c(=O)[nH]c2nc4ccccc4n32)c1 (stereo unspecified) 0.803%
Cc1ccccc1-c1nnn(CC(=O)Nc2sc3c(c2C#N)CCC(C(C)(C)C)C3)n1 (stereo unspecified) -7.13%
CCOC(=O)c1c(NC(=O)c2nc(S(C)(=O)=O)ncc2Cl)sc(C(C)=O)c1C -20.7%
O=c1[nH]c2ccc(NCc3ccc(-c4ccc(Br)cc4)o3)cc2[nH]1 -7.21%
Cc1ccc2ncc(C(=O)Nc3ccc(OC(F)(F)F)cc3)c(=O)n2c1 -7.05%
COc1cc(OC)cc(-c2nc(-c3ccc4c(c3)[nH]c(=O)n4C)no2)c1 -21.9%
O=C1CCCc2cc(S(=O)(=O)N3CCCC(C(=O)NCc4ccc(Cl)cc4)C3)ccc2N1 (stereo unspecified) -26.5%
CCc1ccc(NC(=O)Cn2c(=O)n(CCCCC(=O)NCCc3ccc(Cl)cc3)c(=O)c3ccccc32)cc1 -11.1%
CCOC(=O)c1[nH]c2ccccc2c1NC(=O)c1ccc(Br)cc1 -14.9%
Cc1ccc2c(c1)N(CCCC(=O)Nc1cccc(C(F)(F)F)c1)C(=O)CO2 -29.8%
COc1cccc(CNC(=O)C2CCN(S(=O)(=O)c3ccc4c(c3)CCCN4C(C)=O)CC2)c1 -17.4%
COc1ccc2cc3c(N)nn(C(=O)c4ccc(OC)c(OC)c4)c3nc2c1 -22.2%
O=C(Nc1ccccc1C(F)(F)F)n1ncc2cc(Cl)ccc21 -10.3%
Cc1ccc(-c2cc(C(=O)NCc3ccccc3Cl)c3ccccc3n2)cc1C -11.8%
CCCCN1C(=O)C(O)(CC(=O)c2ccc(C(C)(C)C)cc2)c2ccccc21 (stereo unspecified) -18.3%
CCCCOc1cc(C(=O)NCCN(CC)CC)c2ccccc2n1 -3.93%
CCOc1ccc(-c2nc3c(c(SCC(=O)N4CCCCC4)n2)Cc2cccc(OC)c2O3)cc1 -9.81%
Cc1cccc(CSc2ncc(Cl)c(C(=O)Nc3nc4ccc(F)cc4s3)n2)c1 -8.8%
CCOc1ccc(NC(=O)c2ncoc2-c2ccco2)cc1 10.7%
COc1cc(NC(=O)Cn2cc(C(=O)c3ccc(F)cc3)c(=O)c3ccc(C)nc32)cc(OC)c1 -16.2%
Cc1ccc2nc3c(cc(C#N)c(=O)n3-c3nnc(SCc4ccccc4)s3)c(=O)n2c1 -9.96%
CCCn1c2ccccc2c2cnn(CC(=O)N3CCN(c4ccccc4)CC3)c(=O)c21 2.22%
O=C(Cn1c(=O)nc(-c2ccccc2)c2cc(Cl)ccc21)Nc1ccc(F)c(Cl)c1 -1.49%
CCOc1cc(C#N)c(NC(=O)Cn2nnc(-c3ccc(C)cc3)n2)cc1OCC -10.8%
CC(C)NC(=O)c1ccc(NC(=O)N2CCCCc3ccccc32)cc1 -2.08%
COc1cccc(CNC(=O)c2ccc(-n3c(C)cc4c3CCC(C)C4)cc2)c1 (stereo unspecified) -12%
Cc1nc(SCc2cccc(Cl)c2)nc2c1CCCC2 -14.3%
Cc1ccccc1Cn1c(SCc2ccc(C(=O)NC3CCCCC3)cc2)nc2ccncc21 -3.17%
CC(C)N(Cc1nc(-c2ccc(Cl)cc2)no1)C(=O)c1ccc(C(C)(C)C)cc1 1.65%
O=C(NCCc1csc(-c2cccnc2)n1)c1cccc(Cl)c1 -37.9%
CCOc1ccc(CC(=O)NCCc2sc3nc(-c4ccc(F)cc4)nn3c2C)cc1 -19.5%
Cc1c(C)n(CCN(C)C)c2ccc(C(=O)OCCN(C)C)cc12 -0.104%
Cc1ccc2ncc(C(=O)c3ccc(C)c(C)c3)c(S(=O)(=O)c3ccc(F)cc3)c2c1 -6.72%
Cc1cccc(NC(=O)CSc2nc3ccc(NC(=O)c4ccccc4)cc3s2)c1 -8.63%
COc1cccc(CN2C(=O)c3ccccc3Sc3ccc(C(=O)OCc4ccco4)cc32)c1 0.903%
CC1=C(c2ccc(Cl)cc2)S(=O)(=O)N=C1N1CCN(c2cccc(C)c2C)CC1 -0.255%
Cc1ccc(CNc2nnc(C)c3nnn(Cc4ccc(F)cc4)c23)cc1 -27.9%
Fc1ccc(NCc2ccccc2-c2nnc(-c3ccccc3Cl)o2)cc1 -18.8%
CC(=O)N1c2ccc(S(=O)(=O)N3CCCCCC3)cc2CC1C(=O)NCc1cccc(C)c1 (stereo unspecified) -14.6%
COc1cc(NC(=O)Cn2c(=O)cc(C)c3c(C)nn(-c4ccc(C)cc4)c32)cc(OC)c1 -8.53%
CCOc1ccc(-c2cc3nc(C4CCN(C(=O)OC(C)(C)C)CC4)c(C(=O)Nc4cccc(CC)c4)cn3n2)cc1 -14.3%
Cc1ccc(-n2ncc3c(NCc4ccccc4)ncnc32)cc1Cl -15.1%
CCSc1nc2n(n1)C(c1ccc(Cl)cc1Cl)C(C(=O)Nc1ccccc1C)=C(C)N2 (stereo unspecified) -14.8%
CC(C)(C)c1ccc(-c2nc(NC(=O)CSc3ncnc4sc5c(c34)CCCC5)ns2)cc1 -5.59%
CCCCOc1ccc(C(=O)N(Cc2ccc(N(C)C)cc2)Cc2ccco2)cc1 -15.7%
Cc1ccc(-n2ccn(CC(=O)NCCc3ccccc3)c(=O)c2=O)cc1C -15.4%
COc1ccc(NC(=O)CN(C)S(=O)(=O)c2ccc3c(c2)CCCN3C(C)=O)cc1 -1.78%
CCc1ccc(NC(=O)CSc2nccn2-c2ccc(F)cc2)cc1 -4.63%
COc1ccc(N2CC(NC(=O)/C=C\c3ccc4c(c3)OCO4)CC2=O)cc1OC (stereo unspecified) -0.555%
COc1ccccc1NC(=O)CSc1nncn2c1cc1sccc12 -3.73%
CCOCCCNC(=O)C(c1ccccc1)N(Cc1ccc2c(c1)OCO2)C(=O)c1ccc(NC(C)=O)cc1 (stereo unspecified) -3.96%
Cc1ccccc1CNC(=O)c1ccc2nc(SCc3ccc(F)cc3)n(C)c2c1 -13.5%
CCc1ccccc1NC(=O)Cn1cc(S(=O)(=O)N2CCCC2)c(S(=O)(=O)N2CCCC2)c1 -7.7%
O=C(c1ccco1)N(Cc1cccnc1)c1nc2c(F)cc(F)cc2s1 -14.9%
O=C(NCc1ccc2c(c1)OCO2)c1ccc2c(c1)N(Cc1ccccc1F)C(=O)c1ccccc1S2 -13.2%
CCc1ccccc1NC(=O)CN(c1ccccc1)S(=O)(=O)c1ccsc1C(=O)OC 7.49%
Cc1ccc2cccc(NC(=O)c3ccc(OC(C)C)cc3)c2n1 -11.4%
CCC(=O)C1=C(c2ccc(F)cc2)N(C(=O)CC)n2cnnc2S1 -25.9%
Cc1ccccc1CN1C(=O)c2ccccc2S(=O)c2ccc(C(=O)NCc3ccc(Cl)cc3)cc21 (stereo unspecified) -12%
CCCOc1ccc(-c2cccc(NS(=O)(=O)c3ccccc3)c2)nn1 2.99%
COc1ccccc1C(=O)N1c2ncnn2C2(CCCCC2)[C@@H]2CCCC[C@@H]21 -11.1%
COc1ccc(Cn2c(C(=O)O)c(CNC3CCCC3)c3ccc(OC)cc32)cc1 0.372%
CCn1c(=O)cc(SCC(=O)NCc2cccc(Cl)c2)c2ccccc21 -7.65%
Cc1cc(C)cc(-n2c(C)cc(C(=O)C(=O)Nc3ccccc3F)c2C)c1 -12.2%
CCN1C(=O)c2ccccc2Sc2ccc(NC(=O)N3CCN(c4cc(C)ccc4C)CC3)cc21 -10.8%
CCOC(=O)c1ccc(NC(=O)C(CC)Sc2nc3ccncc3[nH]2)cc1 (stereo unspecified) -7.34%
CC(C)(C)OC(=O)N1CCC(c2c(C(=O)NCCN3CCc4ccccc4C3)cnn2-c2ccc(F)cc2)CC1 -18.4%
CCCCOc1ccc(C(=O)Nc2ccc(-c3cc4ccccc4oc3=O)cc2)cc1 -7.65%
Cc1ccc(CNC(=O)Nc2cc(C(=O)NCc3ccc(C(C)C)cc3)ccc2N2CCCC2)cc1 -5%
Cc1c(Cl)cccc1NC(=O)c1ccc2c(c1)CCCN2S(C)(=O)=O -33.5%
CC(C)c1ccc(OCC(=O)NCCS(=O)(=O)N2CCN(c3ccc(F)cc3)CC2)cc1 -6.48%
CCOc1ccc(-c2nn(-c3ccccc3)cc2C2NC(=O)NC(C)=C2C(=O)OC(C)C)cc1 (stereo unspecified) -8.38%
CSc1nc(Nc2ccc(F)cc2)cc(-c2ccccc2)n1 -12.4%
Cc1ccc(-n2cc(C(=O)Oc3ccc(F)cc3)c3ccccc3c2=O)cc1 0.404%
O=C(CC1C(=O)N(c2ccc(F)cc2)C(=O)N1Cc1ccc2c(c1)OCO2)Nc1ccc(Cl)cc1 (stereo unspecified) -12.8%
Cc1ccc2c(=O)cc(C(=O)Nc3ccc(S(=O)(=O)Nc4onc(C)c4C)cc3)oc2c1C -0.64%
O=C(CSc1oc(-c2ccccc2)nc1S(=O)(=O)c1ccc(Cl)cc1)c1ccccc1 -5.77%

From PubChem BioAssay AID1159614 (National Center for Advancing Translational Sciences (NCATS), 2016)
